In paper PMC4336329 (PLoS ONE, 2015):
The campaign covered roughly 310,000 compounds. About 14,000 (4.5%) showed an effect of 50% or more. The effect is printed as a negative number. This is one part of the list.

Target: human ether-à-go-go-related gene (hERG) potassium channel (human, UniProt Q12809)
Test: primary screen, population patch clamp on CHO cells stably expressing hERG
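Note: peak tail current of the secondary pulse compared with the same well before compound.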

Sequence of human ether-à-go-go-related gene (hERG) potassium channel (Q12809 whole entry, looked up): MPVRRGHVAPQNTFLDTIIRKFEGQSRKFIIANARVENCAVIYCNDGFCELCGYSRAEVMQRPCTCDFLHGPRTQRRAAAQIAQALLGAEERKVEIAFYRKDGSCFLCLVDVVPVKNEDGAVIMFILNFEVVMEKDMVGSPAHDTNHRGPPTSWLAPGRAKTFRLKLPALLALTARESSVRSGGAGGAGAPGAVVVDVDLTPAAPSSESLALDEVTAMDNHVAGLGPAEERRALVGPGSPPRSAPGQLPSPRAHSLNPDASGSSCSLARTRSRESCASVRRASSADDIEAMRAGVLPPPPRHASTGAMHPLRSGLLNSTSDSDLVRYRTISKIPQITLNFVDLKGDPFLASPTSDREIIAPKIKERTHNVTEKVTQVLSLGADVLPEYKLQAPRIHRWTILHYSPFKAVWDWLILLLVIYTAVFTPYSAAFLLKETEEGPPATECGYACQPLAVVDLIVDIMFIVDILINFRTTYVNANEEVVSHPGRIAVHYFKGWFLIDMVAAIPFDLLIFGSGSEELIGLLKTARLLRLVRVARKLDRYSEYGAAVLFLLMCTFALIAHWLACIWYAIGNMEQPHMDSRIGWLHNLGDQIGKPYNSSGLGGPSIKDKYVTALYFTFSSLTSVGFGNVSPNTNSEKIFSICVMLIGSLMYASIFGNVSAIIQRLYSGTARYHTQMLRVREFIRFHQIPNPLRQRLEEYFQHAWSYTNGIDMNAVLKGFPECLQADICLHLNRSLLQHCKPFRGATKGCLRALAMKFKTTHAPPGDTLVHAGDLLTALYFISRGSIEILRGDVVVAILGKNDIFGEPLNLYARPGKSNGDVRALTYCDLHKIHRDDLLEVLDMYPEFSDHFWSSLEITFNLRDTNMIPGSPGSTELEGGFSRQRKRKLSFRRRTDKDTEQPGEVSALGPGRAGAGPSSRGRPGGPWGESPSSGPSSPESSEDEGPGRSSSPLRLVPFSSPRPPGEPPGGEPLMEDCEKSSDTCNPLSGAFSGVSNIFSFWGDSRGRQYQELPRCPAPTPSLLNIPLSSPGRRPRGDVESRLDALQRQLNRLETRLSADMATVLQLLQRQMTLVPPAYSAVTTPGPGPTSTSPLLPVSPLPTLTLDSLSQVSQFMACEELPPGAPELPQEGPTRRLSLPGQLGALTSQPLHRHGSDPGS

Row | Compound | hERG current change (%, negative = inhibition) at 10uM [%]
1 | CN(C)S(=O)(=O)CC12CCC(CC1=O)C2(C)C (centres unmarked) | 5.43
2 | N#Cc1ccccc1Cn1cc(C(=O)c2ccccc2F)c2ccccc21 | 4.67
3 | CC(C)(O)C#Cc1ccc(C(=O)N2CCN(c3ccc(Cl)cc3)CC2)cc1 | -9.19
4 | COc1cc(/C=N\NC(=O)c2ccc(C)nc2)ccc1OC(=O)c1cccc(F)c1 | -8.51
5 | CC(C)CCNc1nc2c(c(=O)n(Cc3cccc(F)c3)c(=O)n2C)n1C | -11.9
6 | COc1cccc(Nc2nnc(SCC3CCCCO3)s2)c1 (centres unmarked) | -21.1
7 | CC(=O)N1CCOc2ccc(S(=O)(=O)Nc3ccc(Cl)cn3)cc21 | 15.7
8 | COc1ccc(/C=N/NC(=O)CCn2c3ccccc3c3ccccc32)cc1O | 5.18
9 | O=[N+]([O-])c1cccc(-c2nnc(C34CC5CC(CC(C5)C3)C4)o2)c1 | 9.11
10 | CN1CCc2nc(SCC(=O)Nc3ccc(F)cc3)c(C#N)cc2C1 | -22.7
11 | O=C(O)CCCC(=O)Nc1ccc(C(=O)N2CCCCC2)c(Cl)c1 | 4.23
12 | O=C(NCc1ccco1)C1(c2ccc(Br)cc2)CCCC1 | 10.6
13 | CCN1CCN(S(=O)(=O)c2ccc(Br)s2)CC1 | -5.03
14 | O=C(CSc1nnc(NC(=O)c2ccccc2Cl)s1)NC1CC1 | 4.44
15 | COc1ccc(NC(=O)CN(C)C(=O)CC2CCCC2)cc1 | 3.53
16 | CCC(C)c1ccc(NC(=O)c2[nH]c(C)c(C(C)=O)c2C)cc1 (centres unmarked) | -18.5
17 | COc1ccc(C(=O)NC(C)CCCC(C)(C)O)cc1OC1CCN(C(C)=O)CC1 (centres unmarked) | 14.5
18 | N/C(=N\OS(=O)(=O)c1ccc(Cl)cc1)c1ccncc1 | -2.67
19 | Cc1nnc(SCC(=O)NNC(=O)c2ccc(Cl)cc2)n1CC1CCCO1 (centres unmarked) | -3.08
20 | COc1cc(C(CCN2CCCC(C)C2)c2c(OC)cc(OC)c3c2OC(=O)CC3c2ccc(N(C)C)cc2)cc(OC)c1OC (centres unmarked) | -30.3
21 | CCOc1ccccc1NC(=O)c1ccc2c(c1)C(=O)N(CC(C)C)C2=O | 11.1
22 | Cc1cc(-c2ccc(S(=O)(=O)N3CCN(C)CC3)s2)on1 | -5.55

Row | Compound | hERG current change (%, negative = inhibition) at 10uM [%]
23 | CCCNc1nc(N)nc(-c2cc(Cl)ccc2OC)n1 | 9.18
24 | COc1cc(C2N(c3ccccn3)C(=O)C3CCCN32)cc(OC)c1OC (centres unmarked) | -2.76
25 | CC1OC2(C)OC(=N)C1(C#N)C(C#N)(C#N)C2c1ccccc1 (centres unmarked) | 32.2
26 | O=C(Nc1cccc(NC(=O)c2ccc(-c3ccc(Br)cc3)o2)c1)c1ccccc1 | -1.85
27 | CCC(Cc1ccccc1)NC(=O)c1ccc2nc(N3CCOCC3)sc2c1 (centres unmarked) | -46.5
28 | CCOc1ccc(NS(=O)(=O)c2ccc(SC)cc2)cc1 | -18.7
29 | COc1ccc(NC(=O)CCc2nnc3ccc(NCc4ccco4)nn23)cc1 | 1.15
30 | Clc1ccc(-c2ccn[nH]2)cc1 | 3.54
31 | COCCOC(=O)c1c(C)nc(SCC(=O)Nc2ccc(C)cc2)c(C#N)c1-c1ccco1 | 10.5
32 | CCN1C(=O)[C@@H]2[C@H](C1=O)[C@@H]1C(=O)Nc3ccccc3C(=O)N1[C@@H]2c1ccccc1 | 0.807
33 | CN(CC1CCCN(CCc2ccc(Cl)cc2)C1)C(=O)c1ccoc1 (centres unmarked) | -85.7
34 | COC(=O)c1ccc(NC(=O)c2ccc(C)cc2)o1 | -0.404
35 | O=C(O)CNC(=S)N(Cc1ccco1)Cc1ccccc1Cl | 6.98
36 | CCc1noc(C)c1C(=O)NNC(=O)c1ccc(Br)cc1 | 15.9
37 | Cc1noc(C)c1C(=O)Nc1cc(Cl)ccc1N1CCOCC1 | -0.777
38 | O=C(c1cc(C2CC2)nc2ccccc12)N1N=C(C(F)F)CC1(O)C(F)F (centres unmarked) | -18.3
39 | Cc1cc2c3c(c1)C1(C(=O)N3C(C)(C)CC2C)C(C#N)=C(N)OC2=C1C(=O)CC(C)(C)C2 (centres unmarked) | 5.48
40 | O=C(CCS(=O)(=O)c1ccccc1)Nc1ccc(N2CCN(Cc3ccccc3)CC2)cc1 | -15.1
41 | COc1ccc(N2CCN(CCNC(=O)c3c(C)cc(=O)oc3C)CC2)cc1 | -12.2
42 | CCOC(=O)C(NC(C)=O)C(O)c1ccc([N+](=O)[O-])cc1 (centres unmarked) | -6.32
43 | COc1ccccc1N1CCN(CC(O)COCc2cccs2)CC1.Cl (centres unmarked) | -19.8
44 | COc1cc2oc(=O)cc(C)c2c(OC)c1OC | 17.9
